The source gives no read counts; variants with many changes may rest on few reads.
B1: LINE1-mini (parent)
chain: GGCAGAGCUCAACACAGCGUGGCAAAGUGGCUGUGGCUAGACUGCC

Variants of: B1
Assay: self-cleavage, relative activity (ratio to wild type); higher = more cleavage; in vitro, sequencing; the parent is a self-cleaving ribozyme

| Variant | self-cleavage |
| --- | --- |
| GUCAGAGCUAAACACAGCGUGGCAAAGUGUCUGUGGCUAACCUGCC | 0 |
| GUGAGAGCUCAACACAGCGUAGCAAAGAGGCUGUGCCUAGCCUGCC | 0.14 |
| GUCAGAGAUCAACACAGCGUGGCAAAGUGGCUGUGGCUAGACUGUC | 0.21 |
| GUCAGAGCUAAACACAGCGUGGCAAAGCGGCUGUGGCUAGAGUGCC | 0.01 |
| GUGAGAGAUCAACACAGCGUGGCAAAGUGGCUGUGGCUGGACUGAC | 0.09 |
| GUUAGAGCUCAUCACAGCGUGUCAAAGUGGCUGUGGCUAGACUGCC | 0.1 |
| GUUCGAGUUCAGCACAGCGUCCCAAAGUGGCUGUGGCUAGACUGCC | 0.01 |
| GUGAGUGCUCAAGACAGUGUGGCAAAAUGGCUGUGGCUAGAAUUCC | 0.11 |
| GUCAGAGCUAAACACAGCGUGGCAAAGUGGCUGUGGCUAGAGUGCC | 0 |
| GUCAGAGCUAAACGCAGAGUGGCAAAGUGGCUGUGGCUAGACUGCC | 0.01 |
| GUCAGAGAUCAACACAGCGUGGCAAAGUGCCUGUGGAAAGACUGCU | 0.23 |
| GUCAGAGGUCAACACAGCAUGGCAAAGUGGCUGUGGCUAGACUACC | 0.01 |
| GUCAGAGCUAAACACAGAGUUGCAAAGUGGCUGUUGCUAGACUGCC | 0.02 |
| GUCAGAGGUCAACACAGCGUUGCAAAUUGGCUGUGGCUAGACUGCC | 0.02 |
| GUAAGAGCUCAACACAGCGUGUCAAAGUGGCUGUGGCUAGACUGCC | 0.46 |
| GUCAGAGCUAAACACAGCGUGUCAAAGUGGGUGUGGCUAGACUGCC | 0.02 |
| GUAAGAUCUAAACACAUCGUGGCACAGUGGCUGUGGCUAGACUGCC | 0.05 |
| GUCAGAGAACAACACAGCGUGGCAAAGUGGCUGUGGCUUGACUGAC | 0.03 |
| GUCAGAGACCAACACAGCGUGGCAAAGUGGCUGUGGCUAGACUGCC | 0.01 |

| Variant | self-cleavage |
| --- | --- |
| GUCAGAGCUGAACACAGCGUGGCAAAGUGUCUGUGGCUGGACUGCC | 0.01 |
| GUCAGAGAUCAACCCAGCGUGGCAAAUUGGCUGUGGCUAGACUGCC | 0.03 |
| GUGAGAGGUCAACACAGCGUGGCAAAGUGGCUGGGGCUAGACUGCC | 0.24 |
| GUGAGAGCUCAACACCGCGUGGCAAAGUGGCUGUGGCUAGACUGGC | 0.08 |
| GUAAGAGCUCAACACAGCGUGGCAAAGGGGCUGUGGCUAGACUGCC | 0.04 |
| GUCAGAGCUUAACACAGCGUGGCAAAGUGACUGUGGCUAGACUGCA | 0.01 |
| GUAAGAGCUCAACACAGCAUGGAAAAGUGGCUGUGGCUAGACUGCC | 0.17 |
| GUCAGAGCUAAACACAGCGCGGCAAAGUGGCUGUGGCUAGACUGCC | 0.11 |
| GUAAGAGCUCAACACAGCGUUGCAAAGUGUCUGUGGCUAGACUGCA | 0.08 |
| GUCAGAGCUCAAAACAGCGUGGCAAAGUGGCUGUGGCUAGACUGGC | 0.04 |
| GUGAGAGCACAACACAGCGUGGCAUAAUGGCUGUGGCUAGUCUGCC | 0.22 |
| GUAAGAGCUCAAUACAGCGUGGCAAAGUGGCUGGGGAUAGACCGCC | 0.07 |
| GUCAGAGCUAAACACAGCGUGGCAAAGUCGCUGUGGCUAGACUGCC | 0.01 |
| GUCAGAGCUAAACACAGCGUGGCAAACUCGCUGUGGCUAGACUGCC | 0.01 |
| GUAAGAGCUCAACACAGCGUGGCAAAGUGGCUGUGGCUAGAUUGCC | 0.07 |
| GUUAGAGCUCAACCCAGCGUGGCAAAGUGGCUGUGGCUAGACUGCG | 0.03 |
| GUCAGAGUUCAACACAGCGUGGCAAAGUGGCUGUAGCUAGACUGCC | 0.26 |
| GUCAGAGCUAAACACAGCGUGGCAAUGGGGCUGUGGAUAGACUGCC | 0.01 |
| GUUAGAGCUCAACACAGCGUGGGAAAGUGGCUGUGGCCCGACUUCC | 0.07 |

| Variant | self-cleavage |
| --- | --- |
| GUCAGAGCUUAACACAGCGUGCCAAAGUGGCUAUGACUAGACUGCC | 0.01 |
| GUCAGAGCUUUACACAGCGUGGCAAAGUGGCUUUGGCUAUACUGCC | 0.03 |
| GUCAGAGGUCCACACAGCGUGGCAAAGUGGCUCUAGCUAGACUGCC | 0 |
| GUAAGAGCUCAACACAGCGUGGCAAAGUCGCUGUGGCUGGACUGCC | 0.07 |
| GUAAGAGCUCAACACAGCGUGGCAAAGUGGCUGUAGCUAGACUGCC | 0.08 |
| GUGAGAGCUCAAGACAGCGUGGCAAAGUGGCUGUGGCUAGACUGAC | 0.02 |
| GUCAGAGCUAAACACAGCGGGGCAAAGUGGCUGUGGCUGGACUGCC | 0 |
| GUCAGAGCUUACCACAGCGUGGCAAAGUGGCUGUGGCUAGACUGCC | 0.01 |
| GUCAGAGCUUAAAACAGCGUGGCAAAGUGGCUGGGGAUAGACUGGC | 0.01 |
| GUCAGAGAUCAACACAACGUGGCAAAGUGGCUGUGGCUAGACUGCC | 0.05 |
| GUCAGAGGUCAAUACAACGUGGCAAAGUGGCUGUGGCUAGACUGCC | 0.03 |
| GUCAGAGGUCAACACAGCGUGGAAAAGUGGCUGUGGCUAGACUGCC | 0.01 |
| GUCAGAGCUUAACCCAGCGUGGCAAAGUGGCUGUGGCUAGAAUGCC | 0.02 |
| GUCAGAGCUUAACUCAGCGAGGCAAAGUGGCUGUGGCUAGACUGCC | 0.02 |
| GUCAGAGCUGAACACAGCGUCGCAAAGUGGCUUUGGCUGGACUGCC | 0.01 |
| GUAAGAGCCCUACACAGCGUGGCAAAGUUGCUGUGGCUAGACUGCC | 0.03 |
| GUCAGAGUUCAACACAGCGUGGCAAAGUAGCUGUGGCUAGUCAGCC | 0.02 |
| GUUAGAGCUCAACACAGCCUUGCAAAGUGGCUGUGGAUGGACUGCC | 0.01 |

— the RNAGym collection of RNA variant scans (doi:10.7554/elife.90254)
